Experiments:
[1] = tested on: Phytophthora infestans; assay type: in vivo; conditions: Table 7, Test F
[2] = tested on: Colletotrichum orbiculare; conditions: 250 ppm sprayed (2.5 ml/pot) before inoculation; assessed 6 to 10 days after inoculation
[3] = tested on: Magnaporthe grisea; assay type: in vivo; conditions: Table 7, Test A

CCn1c(-c2ccccc2F)c(-n2cc(Cl)cn2)ccc1=O [Compound 217]
control value, Test F (late blight on tomato) [1]: L (L shows the control value of 50% or less) | control value, Test H (anthracnose on cucumber) [2]: L (L shows the control value of 50% or less) | control value, Test A (blast on rice) [3]: L (L shows the control value of 50% or less)

Cc1cnn(-c2cc(Cl)c(=O)n(CC(F)F)c2-c2ccccc2Cl)c1Cl [Compound 229]
control value, Test F (late blight on tomato) [1]: L (L shows the control value of 50% or less) | control value, Test H (anthracnose on cucumber) [2]: H (H shows the control value more than 50%) | control value, Test A (blast on rice) [3]: H (H shows the control value more than 50%)

O=c1c(Br)cc(-n2cc(F)cn2)c(-c2c(F)cc(F)cc2F)n1CC(F)F [Compound 283]
control value, Test F (late blight on tomato) [1]: L (L shows the control value of 50% or less) | control value, Test H (anthracnose on cucumber) [2]: H (H shows the control value more than 50%) | control value, Test A (blast on rice) [3]: H (H shows the control value more than 50%)

CCn1c(-c2ccc(OC)cc2F)c(-n2cc(F)cn2)cc(Br)c1=O [Compound 302]
control value, Test F (late blight on tomato) [1]: L (L shows the control value of 50% or less) | control value, Test H (anthracnose on cucumber) [2]: H (H shows the control value more than 50%) | control value, Test A (blast on rice) [3]: H (H shows the control value more than 50%)

CCn1c(-c2ccccc2OC)c(-n2cc(C)cn2)cc(Br)c1=O [Compound 247]
control value, Test F (late blight on tomato) [1]: L (L shows the control value of 50% or less) | control value, Test H (anthracnose on cucumber) [2]: L (L shows the control value of 50% or less) | control value, Test A (blast on rice) [3]: L (L shows the control value of 50% or less)

— patent US11178870B2 (priority 2017, dated 2021)
